PMC7012601
These are yes or no findings as the source states them, for the method shown. In cells and extracts the contact can be indirect. Some binding calls cover weakened binding; strength is not graded here.

Amino acid sequences for entries named in this document (tags omitted).
UniProt Q9GZN0: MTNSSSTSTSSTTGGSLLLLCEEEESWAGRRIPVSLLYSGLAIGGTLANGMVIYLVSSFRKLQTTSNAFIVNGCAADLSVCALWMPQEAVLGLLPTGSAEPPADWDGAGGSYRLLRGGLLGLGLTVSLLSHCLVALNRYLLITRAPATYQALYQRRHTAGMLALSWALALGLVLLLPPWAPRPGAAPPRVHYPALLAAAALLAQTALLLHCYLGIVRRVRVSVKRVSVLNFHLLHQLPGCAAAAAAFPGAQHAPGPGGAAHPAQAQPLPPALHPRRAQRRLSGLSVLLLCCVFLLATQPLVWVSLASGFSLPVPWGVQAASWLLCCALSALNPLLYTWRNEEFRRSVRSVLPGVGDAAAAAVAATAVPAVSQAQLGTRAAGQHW

Target: GPR88-Rluc8 (human) (UniProt Q9GZN0)
Assay: FRET or BRET; BRET1 saturation in living transfected HEK293FT cells: constant Rluc8-tagged receptor (30 ng cDNA; 50 ng SP-µOR, 20 ng δOR-RLuc8), increasing Venus-tagged receptor (0-100 ng); PBS, 5 mM HEPES, 5 µM coelenterazine H; no agonist; saturated signal read as proximity within 10 nm

B1: GPR12-Venus (receptor, UniProt P47775 1-334)
chain: MNEDLKVNLSGLPRDYLDAAAAENISAAVSSRVPAVEPEPELVVNPWDIVLCTSGTLISCENAIVVLIIFHNPSLRAPMFLLIGSLALADLLAGIGLITNFVFAYLLQSEATKLVTIGLIVASFSASVCSLLAITVDRYLSLYYALTYHSERTVTFTYVMLVMLWGTSICLGLLPVMGWNCLRDESTCSVVRPLTKNNAAILSVSFLFMFALMLQLYIQICKIVMRHAHQIALQHHFLATSHYVTTRKGVSTLAIILGTFAACWMPFTLYSLIADYTYPSIYTYATLLPATYNSIINPVIYAFRNQEIQKALCLICCGCIPSSLAQRARSPSDV
B1 was tested, and the binding was “binds”.
